{"source": "PubChem BioAssay AID602340", "about": "(Broad Institute, 2012)", "note": "Out of some 330,000 compounds screened, about 2,600 (0.79%) were called active. Inconclusive results, whose numbers are uncertain, are shown with a selection of clear calls.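 How the source made its calls: active means mean ATP rescue above about 67%, or every replicate alone reaching that limit (limit read from the data, passing the limit was not always enough); inconclusive means no clear call, values can overlap the other calls; inactive means mean under the limit and some replicate under it.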"}
{"experiment": "suppressors of statin myotoxicity in C2C12 myotubes, primary screen, cell-based, single point, plate reader (AID 602340);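 further: myotubes were challenged with 10 µM simvastatin during compound exposure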", "details": "C2C12 myotubes + simvastatin, ATP luminescence, 48 h; at 7.49 µM; stronger effect = higher value; scaled: DMSO 0, geranylgeraniol control 100"}
{"smiles": "C[C@H](CO)N1C[C@H](C)[C@H](CN(C)Cc2ccc3c(c2)OCO3)Oc2ccc(NC(=O)NC3CCCCC3)cc2C1=O", "rescue of ATP level": "inconclusive: 76.8%"}
{"smiles": "Cc1ccc(-n2[nH]c(C)c(C=Nc3cc(C)ccn3)c2=O)cc1", "rescue of ATP level": "active: 89%"}
{"smiles": "C[C@@H]1CN([C@H](C)CO)C(=O)Cc2cc(NS(=O)(=O)c3cn(C)cn3)ccc2O[C@H]1CN(C)Cc1ccc(-c2ccccc2)cc1", "rescue of ATP level": "inconclusive: 71.8%"}
{"smiles": "Cc1cc(NC(=O)CSc2nc3c(c(=O)n2-c2ccc(Br)cc2)SCC3)no1", "rescue of ATP level": "inactive: -7.7%"}
{"smiles": "CC(C)Cn1c(SCC(=O)NC2CC2)nc2ccc(Cl)cc2c1=O", "rescue of ATP level": "inconclusive: 77.6%"}
{"smiles": "CCOC(=O)N1CCN(c2cc3nccnc3cc2F)CC1", "rescue of ATP level": "inconclusive: 70.3%"}
{"smiles": "Clc1ccccc1-c1nn2c(COc3ccccc3)nnc2s1", "rescue of ATP level": "inconclusive: 67%"}
{"smiles": "O=C(O)CSc1nc(-c2ccccc2)nc2c1oc1ccccc12", "rescue of ATP level": "active: 120%"}
{"smiles": "COC(=O)c1ccc(/C=C2/SC(=S)N(CCC(=O)N3CCOCC3)C2=O)cc1", "rescue of ATP level": "active: 71.2%"}
{"smiles": "NC(=O)CNC(=O)[C@@H]1CC2(CC(c3ccc(Cl)cc3)=NO2)CN1C(=O)c1ccc(Br)cc1", "note": "(stereo not given in full)", "rescue of ATP level": "inconclusive: 65.7%"}
{"smiles": "CCCc1nnc(NC(=O)c2cccc(OC)c2)s1", "rescue of ATP level": "inconclusive: 70.2%"}
{"smiles": "O=C(CSc1nnc(-c2cccc(S(=O)(=O)N3CCCC3)c2)n1-c1ccccc1)Nc1cccc(C(=O)O)c1", "rescue of ATP level": "inconclusive: 8.82%"}
{"smiles": "CN(C)c1ccc(/C=N\\Nc2ccccn2)cc1", "rescue of ATP level": "inactive: 5.62%"}
{"smiles": "C[C@@H]1CN([C@H](C)CO)C(=O)c2cc(NS(=O)(=O)c3cccs3)ccc2O[C@@H](C)CCCCO[C@@H]1CN(C)Cc1ccc(C(F)(F)F)cc1", "rescue of ATP level": "active: 91.7%"}
{"smiles": "COCC(=O)Nc1ccc2c(c1)[C@@H]1C[C@@H](CC(=O)NCc3ccccn3)O[C@H](CO)[C@@H]1O2", "rescue of ATP level": "inactive: 2.13%"}
{"smiles": "C[C@H]1CN([C@@H](C)CO)C(=O)Cc2cc(NS(=O)(=O)c3ccc(F)cc3)ccc2O[C@@H]1CN(C)CC1CC1", "rescue of ATP level": "inactive: 7.75%"}
{"smiles": "Cc1cc(NC(=O)CN2C(=O)NC(C)(c3ccc(OC(F)F)cc3)C2=O)no1", "note": "(stereo not given)", "rescue of ATP level": "inconclusive: 84%"}
{"smiles": "COC(=O)Cc1cc(=O)[nH]c(/N=C(\\N)Nc2ccccc2)n1", "rescue of ATP level": "inconclusive: 71.3%"}
{"smiles": "C[C@@H]1CN([C@@H](C)CO)C(=O)Cc2cc(NS(=O)(=O)c3cn(C)cn3)ccc2O[C@H]1CN(C)C(=O)NC1CCCCC1", "rescue of ATP level": "inactive: 6.2%"}
{"smiles": "COc1ccc(N2C(=O)CC(Sc3nnc(-c4ccccc4)o3)C2=O)cc1", "note": "(stereo not given)", "rescue of ATP level": "inactive: -73.2%"}
{"smiles": "CCOC(=O)C1=C(C)NC2=C(C(=O)CCC2)C1c1cn(Cc2ccc(Cl)cc2Cl)nc1-c1ccccc1", "note": "(stereo not given)", "rescue of ATP level": "inconclusive: 77.3%"}
{"smiles": "CCOC(=O)C(Cc1ccccc1)C(=O)Nc1nccs1", "note": "(stereo not given)", "rescue of ATP level": "active: 99.1%"}
{"smiles": "CN1CCN(CCCNC(=O)c2ccc(/C=C3\\Oc4ccccc4N(Cc4ccccc4F)C3=O)cc2)CC1", "rescue of ATP level": "inconclusive: 70.8%"}
{"smiles": "COc1ccc(S(=O)(=O)Nc2cccc3c2O[C@H](CN(C)Cc2ccccc2)[C@@H](C)CN([C@@H](C)CO)C3=O)cc1", "rescue of ATP level": "inactive: -1.82%"}
{"smiles": "C[C@H](CO)N1C[C@H](C)[C@@H](CN(C)Cc2ccc(Cl)c(Cl)c2)Oc2c(cccc2N(C)C)C1=O", "rescue of ATP level": "inconclusive: 74.8%"}
{"smiles": "C=C[C@@H]1c2c(F)cccc2N(S(=O)(=O)c2ccc(C)cc2)[C@H](c2ccc(OC(C)=O)cc2)C1(C#N)C#N", "rescue of ATP level": "inactive: 8.76%"}
{"smiles": "CC(C)Sc1nc2ccccc2n1CC(=O)NCc1ccc2c(c1)OCO2", "rescue of ATP level": "inconclusive: 80.3%"}
{"smiles": "C[C@H]1CN([C@@H](C)CO)C(=O)Cc2cc(NC(=O)Cc3ccccc3)ccc2O[C@@H]1CN(C)Cc1ccc(Oc2ccccc2)cc1", "rescue of ATP level": "inconclusive: 70.4%"}
{"smiles": "Cc1nc2c3cc(Cl)ccc3n(CCN3CCCCC3)c2s1", "rescue of ATP level": "inactive: -34.7%"}
{"smiles": "COc1ccc(Cn2c(CCC(=O)N3CCN(c4ccccn4)CC3)nc3ncccc3c2=O)cc1", "rescue of ATP level": "active: 87.6%"}
{"smiles": "CN1CCc2nc(SCC(=O)Nc3cccc(F)c3)c(C#N)c(-c3cccs3)c2C1", "rescue of ATP level": "inconclusive: 71.9%"}
{"smiles": "C[C@@H]1CN([C@@H](C)CO)C(=O)c2cc(NC(=O)C3CCCCC3)ccc2O[C@@H]1CN(C)CC1CCCCC1", "rescue of ATP level": "inactive: -2.9%"}
{"smiles": "CCn1ncc(Br)c1C(=O)Nc1cc(C(=O)OC)ccc1C(=O)OC", "rescue of ATP level": "active: 123%"}
{"smiles": "C[C@H]1CN([C@@H](C)CO)C(=O)c2cc(NS(=O)(=O)c3ccc(F)cc3)ccc2O[C@H]1CN(C)Cc1ccc(-c2ccccc2)cc1", "rescue of ATP level": "inconclusive: 100%"}
{"smiles": "CCOC(=O)c1c(C)[nH]c(C)c1C(=O)CSc1nc2ccccc2n1CCC#N", "rescue of ATP level": "inconclusive: 88.6%"}
{"smiles": "COc1ccccc1NC(=O)NC1(C(=O)N2CCCCCC2)CCCCC1", "rescue of ATP level": "active: 106%"}
{"smiles": "CC(C)N(C(=O)COC(=O)c1cccc(N(C)C)c1)c1ccccc1", "rescue of ATP level": "inactive: 8.51%"}
{"smiles": "CN1CCN(C(=O)C[C@H]2CC[C@@H]3[C@H](COC[C@H](O)CN3C(=O)C3CCOCC3)O2)CC1", "rescue of ATP level": "inactive: -38.4%"}
{"smiles": "Cc1cccc(Nc2nc(CC(=O)O)cs2)c1", "rescue of ATP level": "active: 128%"}
{"smiles": "Cc1cc2c3nonc3ccc2n1C", "rescue of ATP level": "inconclusive: 66.3%"}
{"smiles": "C[C@H](NC(=O)N(C)C[C@@H]1OCc2ccccc2-c2c(n(C)c3ccccc23)C(=O)N([C@H](C)CO)C[C@@H]1C)c1ccccc1", "rescue of ATP level": "inactive: 18.3%"}
{"smiles": "CCn1cc(C(=O)N2CCN(c3ccc([N+](=O)[O-])cc3)CC2)c(=O)c2ccc(C)nc21", "rescue of ATP level": "inconclusive: 72.4%"}
{"smiles": "CC(C)Oc1ccc(C(=O)NCc2ccco2)cc1", "rescue of ATP level": "active: 127%"}
{"smiles": "C=C(C)Cn1c(CCCNC(=O)C(C)(C)C)nc2ccccc21", "rescue of ATP level": "active: 154%"}
{"smiles": "C[C@H](CO)N1C[C@H](C)[C@H](CN(C)Cc2ccc3c(c2)OCO3)Oc2ccc(NS(=O)(=O)c3ccc(F)cc3)cc2CC1=O", "rescue of ATP level": "inconclusive: 79.4%"}
{"smiles": "CCc1cc(C(=O)NNC(=O)CCl)sc1C", "rescue of ATP level": "inconclusive: 8.27%"}
{"smiles": "CNC(=O)c1ccc(OCc2ccccc2)c(OC)c1", "rescue of ATP level": "inconclusive: 77.1%"}
{"smiles": "S=C(NCc1ccco1)N1CCN(c2ccccc2Cl)CC1", "rescue of ATP level": "inconclusive: 13.4%"}
{"smiles": "C[C@@H]1CN([C@@H](C)CO)C(=O)c2cc(C#CC3CCCCC3)cnc2O[C@H]1CN(C)C(=O)C1CCCCC1", "rescue of ATP level": "inconclusive: 127%"}
{"smiles": "C[C@H]1CN([C@@H](C)CO)C(=O)Cc2cc(NC(=O)CCCCCC(=O)Nc3ccccc3N)ccc2O[C@@H]1CN(C)CC1CCCCC1", "rescue of ATP level": "inconclusive: 80.1%"}
{"smiles": "CCN(CC(=O)Nc1c(F)cccc1F)C(=O)C1CCN(C(=O)c2ccc(Cl)cc2)CC1", "rescue of ATP level": "inactive: 11.1%"}
{"smiles": "C[C@@H]1CN([C@H](C)CO)C(=O)Cc2cc(NC(=O)C3CCCCC3)ccc2O[C@H]1CN(C)Cc1ccc(Oc2ccccc2)cc1", "rescue of ATP level": "inconclusive: 75%"}
{"smiles": "Cc1cccc(-c2cnn(-c3ccccc3)c2N)c1", "rescue of ATP level": "inconclusive: 7.83%"}
{"smiles": "C/C(=N\\NC(=O)c1ccc(NS(=O)(=O)c2cccs2)cc1)c1cccs1", "rescue of ATP level": "inactive: -1.07%"}
{"smiles": "CC(=O)N1c2ccc(S(=O)(=O)NCCC(=O)NCc3ccc(N(C)C)cc3)cc2CC1C", "note": "(stereo not given)", "rescue of ATP level": "active: 92%"}
{"smiles": "Cc1ccc(S(=O)(=O)NCC(=O)OCC(=O)Nc2ncc(Cl)cc2Cl)cc1", "rescue of ATP level": "inconclusive: 66.1%"}
{"smiles": "O=C(c1ccco1)N1CCCC(c2nc3c(nnn3Cc3cccc(Cl)c3)c(=O)[nH]2)C1", "note": "(stereo not given)", "rescue of ATP level": "inconclusive: 76.1%"}
{"smiles": "COc1ccc(-c2cc(C(F)(F)F)nc(S(=O)(=O)CCC(=O)N3CCOCC3)n2)cc1", "rescue of ATP level": "inconclusive: 69.1%"}
{"smiles": "Cc1noc(C)c1S(=O)(=O)Nc1ccc2c(c1)CC(=O)N([C@@H](C)CO)C[C@@H](C)[C@@H](CN(C)Cc1ccc(Cl)c(Cl)c1)O2", "rescue of ATP level": "inconclusive: 85%"}
{"smiles": "CN(C)c1nc(F)c(F)c(S(=O)(=O)c2ccccc2)c1F", "rescue of ATP level": "inconclusive: 15.3%"}
{"smiles": "COc1ccc(OC)c(-c2cc(C(=O)NCCCn3ccnc3)no2)c1", "rescue of ATP level": "active: 161%"}
{"smiles": "Cc1cccc(C(C#N)c2nc3ccccc3nc2C(F)(F)F)c1", "note": "(stereo not given)", "rescue of ATP level": "inconclusive: 76.2%"}
{"smiles": "C[C@H]1CN([C@@H](C)CO)C(=O)c2cc(NS(=O)(=O)c3cccs3)ccc2O[C@H]1CN(C)Cc1ccc(Cl)c(Cl)c1", "rescue of ATP level": "inconclusive: 71.6%"}
{"smiles": "Cc1nc2cc(-n3ccc(=O)cc3)ccc2n1-c1ccccc1", "rescue of ATP level": "inconclusive: 83.5%"}
{"smiles": "Cc1ccc(/C=C(\\NC(=O)c2ccc(C)cc2)c2nc(=S)[nH][nH]2)cc1", "rescue of ATP level": "inconclusive: 68.9%"}
{"smiles": "COc1ccc(C2Nc3ccc4ccccc4c3-c3c2c(=O)oc2ccccc32)cc1", "note": "(stereo not given)", "rescue of ATP level": "inconclusive: 70.9%"}
{"smiles": "C[C@@H]1CN([C@@H](C)CO)C(=O)Cc2cc(NS(=O)(=O)c3ccc(Cl)cc3)ccc2O[C@H]1CN(C)Cc1ccc(Cl)c(Cl)c1", "rescue of ATP level": "inconclusive: 77.3%"}
{"smiles": "COc1cccc(C(=O)Nc2cccc(-c3ccc(N4CCOCC4)nn3)c2)c1", "rescue of ATP level": "inactive: -31.5%"}
{"smiles": "C[C@@H]1CN([C@H](C)CO)C(=O)c2cccc(NC(=O)c3nc4ccccc4s3)c2O[C@@H]1CN(C)Cc1ccc(C(=O)Nc2ccccc2N)cc1", "rescue of ATP level": "inconclusive: 76.9%"}
{"smiles": "Cc1nnc(-c2cnn(-c3ccccc3)c2N)n1Cc1cccc(C(F)(F)F)c1", "rescue of ATP level": "inactive: -12.4%"}
{"smiles": "O=C(CSc1nc2ccccc2n1CC(=O)N1CCCC1)Nc1nccs1", "rescue of ATP level": "inconclusive: 68.2%"}
{"smiles": "Cc1cccc(NC(=S)N2CCN(Cc3ccc4c(c3)OCO4)CC2)c1C", "rescue of ATP level": "inconclusive: 68.8%"}
{"smiles": "CCOC(=O)Nc1sc2c(c1C(N)=O)CCC(C)C2", "note": "(stereo not given)", "rescue of ATP level": "inactive: 0.575%"}
{"smiles": "C[C@@H]1CN([C@@H](C)CO)C(=O)Cc2cc(N(C)C)ccc2O[C@H]1CN(C)Cc1ccc2c(c1)OCO2", "rescue of ATP level": "inconclusive: 79.8%"}
{"smiles": "COc1cc(CN(C)CCc2ccccc2)ccc1OCc1ccccc1", "rescue of ATP level": "inactive: -19.1%"}
